Measured values reported in PubChem BioAssay AID686979 (National Center for Advancing Translational Sciences (NCATS), 2013).
Hit rate of the full screen: of about 420,000 compounds, about 50,000 (12%) were called active. Inconclusive means that the source gave no clear call. Such entries were picked first, then a sample of the others. Calls come from the whole dose curve; as a rule, active = well fitted inhibition curve with a large enough effect; inconclusive = small, poorly fitted or top-dose-only effect; inactive = flat fitted curve, though single readings scatter. No potency is given beside an inconclusive call; the fits are too rough.
Potency is the fitted concentration of half-maximal effect; tags give direction and shape of the fitted curve.

Experiment: qHTS for Inhibitors of human tyrosyl-DNA phosphodiesterase 1 (TDP1): qHTS in cells in presence of CPT; note: nearly all actives have a fitted effect of over 55% in size
Details: chicken DT40 Tdp1-/-;hTDP1 cells + 20 nM CPT, ATP luminescence, 48 h; series mostly up to 46.2 µM
Procedure, shortened: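 Cell growth measured by CellTiter-Glo luminescence after a minimum 48 h, 37 C compound exposure with 20 nM CPT in Tdp1-knockout DT40 cells stably expressing hTDP1, seeded 400/well; qHTS titration format.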
For `Nn1c(SCC(=O)N2CCCC2)nnc1C1CCCCC1`, the Potency was “inactive”.
With `CCS(=O)(=O)N1Cc2cc(C(=O)NCCOC)nc(-c3cccc(-c4ccncc4)c3)c2[C@H]1CCO` the Potency was “inactive”.
For `Cc1ccccc1N1CCN(S(=O)(=O)CC23CCC(CC2=O)C3(C)C)CC1` (stereo not given), the Potency was inconclusive [inhibitor, partial curve].
With `Cc1nc(N2CCN(c3ccccn3)CC2)c2c(C)c(C(=O)N3CCN(c4ccccc4F)CC3)sc2n1` the Potency was inconclusive [inhibitor, single point].
For `COC(=O)C1=C(C)NC(=S)NC1c1ccc(-c2cc(Cl)ccc2Cl)o1` (stereo not given), the Potency was active: 6.51 µM.
With `CC1=C(c2ccc(C)c(C)c2)S(=O)(=O)N(Cc2ccc(C(=O)Nc3cc(F)ccc3F)cc2)C1=O` the Potency was “inactive”.
With `CCC(=O)Nc1c(S(=O)(=O)c2ccc(C)cc2)c2nc3ccccc3nc2n1C(C)c1ccccc1` (stereo not given) the Potency was inconclusive [inhibitor, single point].
With `COc1ccc(NC(=O)CCc2nc(-c3ccc(C)cc3)no2)c(OC)c1` the Potency was inconclusive [inhibitor, single point].
With `Cc1ccc(S(=O)(=O)C=CS(=O)(=O)c2ccc(C)cc2)cc1` the Potency was active: 1.03 µM.
In the case of `O=C(COc1ccc(Cl)cc1)N1CCN(c2ccc([N+](=O)[O-])c(N3CCCCC3)c2)CC1`, the Potency is reported as inconclusive [inhibitor, single point].
In the case of `Cc1ccc2c(c1)C(=O)OC(C(=O)Nc1ccccc1C(=O)O)C2` (stereo not given), the Potency is reported as “inactive”.
In the case of `Cc1cc(C)n(-c2nnc3n2N=C(c2ccccc2)CS3)n1`, the Potency is reported as “inactive”.
With `Cc1ccc2cc(/C=C(\C#N)C(N)=O)c(N3CCCCC3)nc2c1` the Potency was inconclusive [inhibitor, single point].
In the case of `CCOc1ccc(-n2cc(-c3ccccc3)c3c(NC4CCCC4)ncnc32)cc1`, the Potency is reported as active: 14.6 µM.
With `COC(=O)c1cccc(NS(=O)(=O)c2ccc(OC)c(OC)c2)c1C` the Potency was inconclusive [inhibitor, single point].
In the case of `Cc1ccc(NC(=O)c2nc[nH]c2C(=O)NC2CCN(C(=O)OC(C)(C)C)CC2)cc1`, the Potency is reported as inconclusive [inhibitor, single point].
For `COc1ccccc1Oc1nc(C)c(C(C)=O)cc1C#N`, the Potency was “inactive”.
In the case of `Cc1ccccc1Nc1nc(N)c(C(=O)c2ccccc2Cl)s1`, the Potency is reported as inconclusive [inhibitor, single point].
In the case of `O=C(COC(=O)Cn1cnc2ccccc21)Nc1cc2c(cc1Cl)C(=O)c1ccccc1C2=O`, the Potency is reported as active: 20.6 µM.
For `CC(C)(O)C#Cc1ccc(CN2CCN(Cc3ccccc3)C(CCO)C2)cc1` (stereo not given), the Potency was inconclusive [inhibitor, single point].
